# Measured values taken from the supplement of paper PMC4166925.
# ± gives the standard deviation of the averaged measurements. In all, about 33,000 sequences were measured (“E-score (dimensionless, -0.5 to 0.5)”: median about -0.049, highest 2% from about 0.37 on). The list shows a part of the results.
# Tested on: T1, PmTbr T-box DNA-binding domain (GST fusion)
# T1 sequence: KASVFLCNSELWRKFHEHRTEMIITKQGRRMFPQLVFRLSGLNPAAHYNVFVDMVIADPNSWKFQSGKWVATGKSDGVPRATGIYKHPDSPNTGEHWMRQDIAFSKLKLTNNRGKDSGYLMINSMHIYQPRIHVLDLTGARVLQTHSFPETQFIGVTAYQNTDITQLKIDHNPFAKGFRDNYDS
# Assay: PBM E-score of 8-mer (E-score (dimensionless, -0.5 to 0.5)); Tbr is Tbrain of the sea star Patiria miniata (Pm) or the sea urchin Strongylocentrotus purpuratus (Sp); higher = stronger binding preference; most listed sequences are background and not binding sites
# Conditions: the construct has about 5 more residues each side
# Summary of the method: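 Expression of GST-fused Tbr T-box DNA-binding domains, each holding the full T-box plus roughly five flanking residues, was carried out in BL21 E. coli at 20 °C, with purification by glutathione affinity chromatography. Universal Agilent arrays made double-stranded by primer extension were incubated with the protein at 200 nM in PBS (pH 7.5), then scanned and quantified. All ungapped 8-mers were scored from probe intensities, and each received an enrichment E-score from the Universal PBM Analysis Suite, averaged over duplicate arrays.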
row,Sequence,PBM E-score of 8-mer
1,TGAACCCA,-0.196 ± 0.048
2,AGTTTTTA,-0.15 ± 0.12
3,AGGAAGCA,-0.234 ± 0.057
4,AGATTCAT,-0.245 ± 0.0095
5,CAAGTGGA,0.00639 ± 0.016
6,CCTGAGGA,-0.163 ± 0.029
7,AGCCGGAT,-0.161 ± 0.027
8,CACAACAA,0.278 ± 0.0061
9,AATCTGGT,-0.215 ± 0.04
10,CGTACTAC,-0.192 ± 0.026
11,AAACTTTA,-0.0279 ± 0.07
12,ATAGGCTG,0.0498 ± 0.019
13,AGTCAGGG,-0.258 ± 0.13
14,AGCCTTGC,0.0184 ± 0.064
15,ACTATGTC,0.0273 ± 0.0063
16,GCTTCGAC,-0.0774 ± 0.06
17,ACGTAGGG,-0.0279 ± 0.0026
18,GAGGATCA,-0.108 ± 0.011
19,CGAGCAGC,-0.1396 ± 0.0012
20,AGATGGAA,-0.131 ± 0.051
21,AATTTAGT,0.00102 ± 0.03
22,TGCGGCCA,-0.197 ± 0.035
23,GTGGTTGA,-0.202 ± 0.019
24,CCAAATGG,-0.072 ± 0.021
25,AAGGCGTA,0.107 ± 0.0048

row,Sequence,PBM E-score of 8-mer
1,CGGTTCGC,0.279 ± 0.048
2,CCTAGGTA,0.0108 ± 0.02
3,AGGCTCAG,-0.226 ± 0.055
4,GGCGGAAA,-0.0947 ± 0.048
5,ATACCCCC,-0.292 ± 0.03
6,CGGGAAAC,0.13 ± 0.031
7,CGGTCGTC,-0.0636 ± 0.08
8,ACCATGGT,0.17 ± 0.025
9,CCCCTTTA,-0.201 ± 0.056
10,ACTCTGAG,-0.134 ± 0.095
11,GAGAACCA,-0.0255 ± 0.022
12,CCCCCACC,-0.148 ± 0.06
13,ATACTCTC,-0.141 ± 0.013
14,CACGGGAA,0.0515 ± 0.031
15,CCCAGACG,-0.162 ± 0.1
16,ATCTCTTG,-0.0373 ± 0.013
17,CTCCCATA,-0.14 ± 0.072
18,GCTACGCC,0.032 ± 0.048
19,GAGGGAAA,-0.196 ± 0.067
20,AGGGCACT,-0.1804 ± 0.00059
21,CCGTAACC,0.0443 ± 0.0046
22,ATTGCAGA,-0.0687 ± 0.049
23,ACAGCCAC,-0.0183 ± 0.066
24,CACCCTGG,0.253 ± 0.08
25,CCTCATGC,-0.102 ± 0.091

row,Sequence,PBM E-score of 8-mer
1,ATCGTCCG,-0.196 ± 0.014
2,AAATTCAT,-0.157 ± 0.063
3,ACTTCATG,-0.0177 ± 0.065
4,CACCCGTA,0.202 ± 0.011
5,CCGCGAAC,0.271 ± 0.036
6,AACAGTTA,0.165 ± 0.043
7,AGAGGAGC,-0.124 ± 0.0083
8,ACGCGCCG,0.232 ± 0.0031
9,AATCCATG,-0.185 ± 0.1
10,GGACCACA,-0.166 ± 0.12
11,CGTTTTAG,-0.000705 ± 0.021
12,ACGAAGTA,-0.0809 ± 0.039
13,GCTCAGGA,-0.2193 ± 0.0013
14,AAAGTGTT,0.429 ± 0.014
15,GGACTGTA,-0.252 ± 0.022
16,CGGCAAAC,-0.0247 ± 0.012
17,ACATCGCT,0.0475 ± 0.034
18,ACTCGGGG,-0.196 ± 0.035
19,AGGTTCCA,-0.0212 ± 0.0022
20,AGGCAGAT,-0.0961 ± 0.0082
21,AATGCGGT,-0.168 ± 0.015
22,CCTCCAGA,-0.00215 ± 0.052
23,ATCATTGG,0.0259 ± 0.051
24,CATCCCTC,-0.135 ± 0.0047
25,GGAGTCCA,-0.207 ± 0.0052

row,Sequence,PBM E-score of 8-mer
1,TAATTAAA,-0.18 ± 0.074
2,TAAATGCA,-0.178 ± 0.13
3,TAATCGCA,0.148 ± 0.03
4,AGTCAGAG,-0.339 ± 0.058
5,AAGAGAAG,0.0141 ± 0.00086
6,AGCGTTGC,0.0297 ± 0.028
7,CAACGGCG,0.11 ± 0.0042
8,AGTGTTGC,0.3558 ± 0.0028
9,ACTCCGCC,-0.102 ± 0.013
10,ACTCACCC,0.139 ± 0.0059
11,TAGAACGA,-0.136 ± 0.028
12,ACGACAGG,0.0499 ± 0.026
13,AATATGTA,0.0104 ± 0.0099
14,AGGTTCGC,0.248 ± 0.012
15,TGAACGAA,-0.304 ± 0.0082
16,CAAGTGAA,0.0677 ± 0.11
17,ATACACCC,-0.0169 ± 0.0085
18,AAGCTTAC,-0.086 ± 0.0032
19,TCGGTGAA,-0.0692 ± 0.1
20,TAACATGA,0.0401 ± 0.069
21,CGCCCTGC,0.069 ± 0.091
22,GAGGGAGA,-0.0203 ± 0.021
23,AAAACCTC,-0.118 ± 0.063
24,CAGTGCTC,-0.0161 ± 0.07
25,ATTAAGCA,-0.171 ± 0.024

row,Sequence,PBM E-score of 8-mer
1,ACTGTGCA,-0.0802 ± 0.035
2,CGAGGTTA,0.0486 ± 0.017
3,CCTTTTTA,-0.04 ± 0.043
4,TGAGGCCA,-0.255 ± 0.015
5,CGTAAATC,0.103 ± 0.025
6,AGCCTACG,-0.0434 ± 0.012
7,CATTGGAC,-0.107 ± 0.047
8,AAGCGTAC,-0.0966 ± 0.052
9,AATCTATA,-0.213 ± 0.0055
10,ATAGGATG,-0.00958 ± 0.037
11,CGGGGTGA,0.277 ± 0.029
12,AGCGAGGC,0.0705 ± 0.012
13,CACGTACA,0.257 ± 0.021
14,AGTCCGCC,-0.179 ± 0.055
15,ATAGTAAG,-0.216 ± 0.029
16,GACTTCGA,0.0669 ± 0.019
17,GCGAGTTA,0.0998 ± 0.0044
18,CAGCTTCG,0.121 ± 0.039
19,GATTTAGA,-0.192 ± 0.055
20,CGCAACCG,0.17 ± 0.036
21,ATGTTGCA,0.0163 ± 0.0015
22,AAAGGTCA,-0.303 ± 0.043
23,GTGCCACA,0.259 ± 0.019
24,AGCGACGA,0.129 ± 0.017
25,TACCATAA,-0.0564 ± 0.0014

row,Sequence,PBM E-score of 8-mer
1,GGGACGAC,-0.126 ± 0.082
2,TACAATAA,-0.241 ± 0.084
3,GCCCAATA,-0.0859 ± 0.015
4,ATTGTCAC,0.427 ± 0.016
5,AGAGACCG,-0.164 ± 0.0055
6,CCTAACCA,-0.125 ± 0.011
7,TCACCAGA,0.174 ± 0.025
8,GGGTAGCA,0.157 ± 0.032
9,CCCCGCTA,0.124 ± 0.056
10,GGTCGTTA,0.0351 ± 0.049
11,CATCCGAA,-0.252 ± 0.026
12,CGGCCGTC,-0.0584 ± 0.014
13,CACTGCCC,0.0159 ± 0.00034
14,AGGCGGCG,0.0344 ± 0.081
15,AAAGCGGA,-0.131 ± 0.1
16,CATGGAGC,-0.297 ± 0.054
17,GCCGTATA,-0.185 ± 0.086
18,CTTGGAGC,-0.21 ± 0.0092
19,GCACCTCC,0.4324 ± 0.002
20,CGTTAAAA,0.0936 ± 0.087
21,ACTATCCC,-0.179 ± 0.054
22,CGGGTAAG,0.00428 ± 0.038
23,GGAACACA,0.108 ± 0.025
24,ACCCCCGG,-0.168 ± 0.024
25,AAGAGCGC,-0.188 ± 0.004

row,Sequence,PBM E-score of 8-mer
1,AGATGCGC,-0.00169 ± 0.016
2,ACAGTAGC,0.159 ± 0.066
3,GATTGCAA,-0.0176 ± 0.095
4,CGAACTAC,0.00516 ± 0.034
5,ACTATAAC,0.0344 ± 0.058
6,CTGAGAGC,-0.0868 ± 0.0072
7,AGAGGTCC,-0.0718 ± 0.013
8,ACGTAGAC,-0.0628 ± 0.036
9,GCCGACGA,-0.0411 ± 0.054
10,CGATTCGC,0.281 ± 0.0085
11,CCAAGAAG,-0.124 ± 0.048
12,CCGCATAA,-0.28809 ± 0.00013
13,CTTTCGTC,0.0821 ± 0.028
14,AAATCTTA,-0.0423 ± 0.077
15,CTGACATA,-0.05981 ± 1.4e-05
16,ACTATTCG,0.103 ± 0.053
17,CGGCACTA,0.00605 ± 0.046
18,ACCGAGCC,-0.175 ± 0.13
19,TACTAGGA,-0.228 ± 0.11
20,CCAATCGG,-0.216 ± 0.075
21,AGGACACT,-0.0839 ± 0.015
22,GACGAGAA,0.12 ± 0.04
23,GGCGCACA,0.0331 ± 0.1
24,AGAAAAGC,-0.161 ± 0.077
25,CGTAAAGC,-0.205 ± 0.0048

row,Sequence,PBM E-score of 8-mer
1,TAATATCA,-0.0503 ± 0.042
2,CTCATCCA,-0.0453 ± 0.03
3,TTGGGAAA,-0.102 ± 0.057
4,ATCTTACA,-0.0195 ± 0.057
5,CCCGGTAG,0.0416 ± 0.02
6,CGGGTTAC,-0.184 ± 0.048
7,ACTTTGCT,0.0633 ± 0.06
8,GCGGATTA,-0.0286 ± 0.0014
9,TAAGGTAA,-0.114 ± 0.099
10,GCTGCAGC,0.0433 ± 0.051
11,ATCATTCA,-0.0769 ± 0.0057
12,AACGGATC,-0.0704 ± 0.012
13,CGATTAGC,-0.0317 ± 0.049
14,CGCTAGAG,0.0404 ± 0.048
15,CTTCAGGC,-0.176 ± 0.04
16,GGAACGAA,-0.118 ± 0.028
17,ACCCCTTA,0.0205 ± 0.031
18,GTGTAAGA,0.235 ± 0.05
19,CTACCGTC,-0.185 ± 0.037
20,CTAGAGAG,-0.118 ± 0.059
21,GAGGTGTA,0.44018 ± 0.00028
22,CAAGGGTG,0.355 ± 0.013
23,GCTTCGAA,-0.0301 ± 0.011
24,CTGCGCGA,0.135 ± 0.033
25,ATATGTGG,0.111 ± 0.081

row,Sequence,PBM E-score of 8-mer
1,AGACAACT,-0.113 ± 0.013
2,GCCTTTAA,-0.131 ± 0.053
3,AATTCGGC,-0.0658 ± 0.056
4,CGTCATAC,0.107 ± 0.023
5,GAGAGAGA,0.061 ± 0.012
6,AACGGTAT,-0.193 ± 0.054
7,CGCGGATC,-0.062 ± 0.056
8,CGCACAGC,0.0317 ± 0.07
9,AATGGGTA,-0.0565 ± 0.071
10,GCCCCTCC,0.0879 ± 0.011
11,AGGACTTA,-0.165 ± 0.04
12,CCTGCATA,-0.114 ± 0.04
13,CCCAGTAC,-0.244 ± 0.011
14,AGTTCCCC,-0.151 ± 0.019
15,AAGTAAGG,-0.0861 ± 0.018
16,TACTCGAA,-0.12 ± 0.0073
17,AAAGCATC,-0.165 ± 0.046
18,ATGGGGAA,0.00532 ± 0.025
19,GTGATCAC,0.276 ± 0.076
